# In PubChem BioAssay AID1240 (Sanford-Burnham Center for Chemical Genomics, 2008):
# About 800 (1.6%) of roughly 50,000 compounds showed an effect of 50% or more. Some of the results follow.
# Target: Bcl-2-like protein 10 (Homo sapiens) (UniProt Q9HD36)
# Assay: TR3 peptide-Bcl-B binding displacers, biochemical primary FP assay, phenotype converters (AID 1240);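 also: 0% = Bcl-B with tracer peptide and DMSO and 100% = tracer peptide lacking Bcl-B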
# Details: GST-Bcl-B / FITC-TR3 peptide fluorescence polarization; stronger effect = higher value; compound at 3.75 mg/L
# Sequence of UniProt Q9HD36 (Q9HD36 whole entry, looked up): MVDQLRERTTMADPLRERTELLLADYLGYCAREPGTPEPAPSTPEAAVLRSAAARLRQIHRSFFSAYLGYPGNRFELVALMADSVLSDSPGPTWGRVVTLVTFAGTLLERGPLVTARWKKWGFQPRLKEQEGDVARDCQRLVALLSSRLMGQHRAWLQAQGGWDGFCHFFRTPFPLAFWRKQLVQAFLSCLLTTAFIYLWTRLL
row,SMILES,displacement [%]
1,Cc1ccc(NC2(c3ccc(Cl)cc3)C(=O)c3ccccc3C2=O)cc1,16.8
2,S=C(NCCC(c1ccccc1)c1ccccc1)Nc1ccc(Cl)cc1Cl,-4.5
3,O=[N+]([O-])c1ccc(-c2nc(Cc3ccccc3Cl)no2)cc1,10.2
4,CCOc1ccc(-c2cc(C(=O)OC)c3ccccc3n2)cc1,-9.6
5,O=C(O)C(Cc1ccccc1)N1C(=O)/C(=C/c2ccccc2[N+](=O)[O-])SC1=S (centres undefined),38.3
6,Cc1cc(Oc2ccc([N+](=O)[O-])cc2)nc(-n2nc(C)cc2C)n1,-4.5
7,Clc1cccc(Cl)c1OCCCCN1CCOCC1,2
8,Cc1ccc(-c2nc3ccccn3c2NC(=O)c2ccco2)cc1,10.8
9,CC(=C1C(=O)c2ccccc2C1=O)N1CCCC1,2
10,NC(=O)CCS(=O)(=O)c1ccccc1,5.4
11,Cc1ccsc1/C=C(/C#N)c1nc(-c2ccc(Cl)cc2)cs1,81.1
12,COc1ccc2c(c1)OCC/C2=N\OC(=O)c1ccc(C)cc1,14.3
13,COc1ccc(Cc2noc(-c3ccc(F)cc3)n2)cc1,-4.8
14,Cc1cc(Br)ccc1N1C(=O)/C(=C/C=C/c2ccccc2)C(=O)NC1=S,-17
15,O=S1(=O)NC(=NC2CCCC2)c2ccccc21,-2.6
16,COc1ccc(-c2cc(-c3ccccc3)nc(N/N=C/c3ccccc3F)n2)cc1,-4.8
17,O=C(CSc1nc2ccccc2s1)Nc1ccccc1,7.4
18,O=S(=O)(NCC(c1ccccc1)N1CCCCC1)c1ccc(Cl)cc1 (centres undefined),9.4
19,CCN(CC)CCN1C(=O)C(O)=C(C(=O)/C=C/c2ccccc2)C1c1ccccc1OC (centres undefined),-7.2
20,COc1ccc(COCC(O)CN2CCN(Cc3ccccc3)CC2)cc1OC (centres undefined),8.2
21,O=C(Nc1ccc(Cc2ccc(NC(=O)C(F)(F)F)c([N+](=O)[O-])c2)cc1[N+](=O)[O-])C(F)(F)F,8.1
22,O=[N+]([O-])c1ccc(-c2ccc(N=Cc3nc(-c4ccccc4)oc3O)cc2)cc1,36.7

row,SMILES,displacement [%]
1,COC(=O)c1c(N)sc2c1CCCC2,10
2,O=C(Nc1ccc(-c2ccc(NC(=O)c3cccnc3)c(Cl)c2)cc1Cl)c1cccnc1,2.4
3,Oc1ccc2ccccc2c1CN1CCN(c2cccc(C(F)(F)F)c2)CC1,10.5
4,CCOc1ccc(NC(=O)c2ccc(S(=O)(=O)N3CCOCC3)cc2)c([N+](=O)[O-])c1,6.5
5,O=C(c1ccccc1F)N1CCN(Cc2ccco2)CC1,-4.6
6,Cc1ccc(C(=O)NC(Nc2ccccc2C(F)(F)F)C(Cl)(Cl)Cl)cc1 (centres undefined),-11.3
7,COCCN1C(=O)C(=O)/C(=C(/O)c2ccccc2)C1c1cc(OC)ccc1OC (centres undefined),-25.2
8,O=C(CSc1nnnn1-c1ccccc1)c1ccc([N+](=O)[O-])cc1,-12.7
9,CC1C(C(=O)N(C=O)c2ccccc2)C2C=CC1C21CC1 (centres undefined),11.4
10,COc1ccc(C=C2C(=O)NC(=O)N(c3cccc(OC)c3)C2=O)cc1,7.9
11,O=C(CSc1nnc(-c2cccc(F)c2)n1-c1ccccc1)NC(c1ccccc1)c1ccccc1,-10.7
12,CCN(CC)CCCOc1ccc(Cl)cc1C,-5.3
13,CSC1=NC2(CCCCC2)CC12C=CC(=O)C=C2,-7.1
14,CC(C)c1cccc(C(C)C)c1NC(=O)COc1ccccc1[N+](=O)[O-],-5
15,CSc1ccccc1N1C(=O)C=CC1=O,4.3
16,CCOC(=O)c1c(-c2ccccc2)oc2ccc(OCC(=O)C(C)(C)C)cc12,7.3
17,COC(=O)c1ccc(C(=O)OC)c(NC(=O)COc2cc(C)cc(C)c2)c1,-5.7
18,COc1ccccc1/C=C1\SC(=S)N(NC(=O)c2ccccc2)C1=O,3.9
19,COc1ccc(CCNC(=O)COc2ccc(C)cc2)cc1,1
20,COc1cc(NC(=O)/C=C/c2ccc(Cl)cc2)ccc1NC(=O)c1ccco1,10.1
21,O=C(O)/C(=C\c1ccc(Cl)cc1)NC(=O)c1ccco1,-0.6
22,O=C(N/N=C/c1ccc(O)c(I)c1)c1cccc([N+](=O)[O-])c1,9.1

row,SMILES,displacement [%]
1,O=C(/C=C/c1ccc2c(c1)OCO2)Nc1ccccc1I,3.8
2,O=S(=O)(N=C(Nc1ccccn1)c1ccccc1)c1ccc(Cl)cc1,8.5
3,COc1ccc(C(=O)CSc2nc(N)cc(=O)[nH]2)cc1[N+](=O)[O-],7.8
4,N#C/C(=C/C=C/c1ccco1)C(=O)Nc1cccc(Br)c1,59.3
5,Cc1ccc(C(=O)N/C(=C/c2cccc3ccccc23)C(=O)N2CCCC2)cc1,14.4
6,O=S(=O)(NC1C2CC3CC(C2)CC1C3)c1ccc(Cl)cc1 (centres undefined),0
7,Nc1c(S(=O)(=O)Cc2ccccc2)sc2nc3c(cc12)CCCC3,-7.4
8,O=C(NCc1ccco1)c1cnn2c(-c3ccccc3)cc(-c3ccccc3)nc12,12.3
9,O=C(NC1CCCC1)c1sc2cc(Cl)ccc2c1Cl,-4.7
10,Cc1nnc(C)n1/N=C/c1c(O)ccc2ccccc12,10.2
11,O=C(N/N=C/c1ccncc1)c1cc(-c2ccc3ccccc3c2)n[nH]1,-9.4
12,COc1cccc(C=C2C(=O)c3ccccc3C2=O)c1,20.2
13,NC(=O)c1cc2nc(-c3ccc(Cl)c(Cl)c3)cc(C(F)(F)F)n2n1,1.8
14,CCc1ccc(OCC(=O)Nc2ccc(-c3nc4ccccc4s3)c(O)c2)cc1,11.4
15,N#Cc1c(NC(=O)c2c(C(=O)O)cccc2[N+](=O)[O-])sc2c1CCCC2,7.3
16,O=C(Oc1ccc(Br)cc1C(=S)N1CCOCC1)c1ccc([N+](=O)[O-])cc1,7.3
17,O=[N+]([O-])c1ccc(Cl)cc1NCCOc1cccc2ccccc12,11.1
18,CCOC(=O)NC(NC(=S)Nc1ccc(OCC)cc1)C(Cl)(Cl)Cl (centres undefined),-5.1
19,COC(=O)c1ccccc1NC(=O)COc1ccc(C)cc1C,3.5
20,Cc1ccc(N2C(=O)C3C(C2=O)C2(C)C=CC3(C)O2)c([N+](=O)[O-])c1 (centres undefined),10.8
21,COC(=O)c1ccc(C(=O)OC)c(NC(=O)C(C)(C)C)c1,4.4
22,CCC1(C)NC(=S)N(c2nc(-c3ccccc3)cs2)N1 (centres undefined),-18.9

row,SMILES,displacement [%]
1,Cn1c2c(c3cc(Cl)ccc31)CCCC2C#N (centres undefined),6.7
2,CCOc1ccc(C2=C/C(=C/c3ccc(OC)c(OC)c3)C(=O)O2)cc1,34.8
3,CS(=O)(=O)N/N=C/c1ccc2c(c1)OCO2,8.4
4,COc1ccc(S(=O)(=O)N(CC(=O)Nc2cccc(C(C)=O)c2)c2ccc(C)cc2)cc1OC,9.1
5,c1ccc2sc(CCSCCc3nc4ccccc4s3)nc2c1,-12.1
6,NC(=O)CSc1nc2sc3c(c2c(=O)n1-c1ccccc1)CCC3,4.5
7,O=C(c1cc(Cl)ccc1Cl)N1CCN(c2ccccc2)CC1,8.3
8,CCOCCOC(=O)c1ccc(NC(=O)c2ccc(Br)cc2)cc1,4
9,CC(Cc1ccccc1)N=C(N)/C(C#N)=C\c1[nH]c2ccccc2c1O (centres undefined),34.5
10,COc1ccc(C2C(C(=O)/C=C/c3ccccc3)=C(O)C(=O)N2CCCCCC(=O)O)cc1 (centres undefined),-9.1
11,Cc1cccc(/C(N)=N/OC(=O)COc2ccc3ccccc3c2)c1,-8
12,N#C/C(=C\c1ccccc1Cl)c1nc(-c2ccc(Cl)c(Cl)c2)cs1,1.1
13,Cc1ccc(N(Cc2ccc(C(=O)NC(C)(C)C)cc2)S(C)(=O)=O)cc1C,4.5
14,CCOC(=O)/C=C1/NC2(CCCC2)Cc2cc(OC)c(OC)cc21,7.7
15,CC(=O)NC(c1ccccc1)C1C(=O)N(c2ccccc2)N=C1C (centres undefined),15.9
16,CN(C1=NS(=O)(=O)c2ccccc21)c1ccccc1,15.7
17,COc1ccccc1NC(=O)C1=C(C)NC(SCc2ccccc2)=C(C#N)C1c1ccco1 (centres undefined),4.2
18,O=C1Nc2c(S(=O)(=O)Nc3ccccc3)cc(S(=O)(=O)Nc3ccccc3)c3cccc1c23,9.4
19,Cc1c(Br)c(C(F)(F)F)nn1CC(=O)NCc1cccs1,0.7
20,CCOc1ccccc1/C=C/C(=O)c1ccc(Cl)cc1,0
21,COc1cccc(NC(=O)CSC(N)=O)c1,1
22,Cc1ccc(N2CC(C(=O)NCC(C)O)CC2=O)cc1 (centres undefined),11.9

row,SMILES,displacement [%]
1,COc1ccc(S(=O)(=O)N2CCN(Cc3ccc(F)cc3)CC2)cc1,-4.6
2,Cc1ccc(OCC(=O)Nc2ccc(Cl)cc2C)c(Br)c1,10.6
3,Cc1cc2nc(-c3cc(NC(=O)c4ccc(Br)o4)ccc3Cl)oc2cc1C,-3.9
4,O=C1NC(=S)N(c2ccc(Cl)cc2)C(=O)/C1=C/c1ccc(N2CCOCC2)o1,3.2
5,Cc1ccc(-c2nn(-c3cc(N4CCN(CCO)CC4)ccc3[N+](=O)[O-])c(=O)c3ccccc23)cc1C,7.4
6,CCOc1cc(C=C2C(=O)NC(=O)NC2=O)ccc1OS(=O)(=O)c1ccc(C)cc1,10.1
7,Cc1ccc2c(c1)NC(c1cccc(O)c1)C1=C(CC(C)(C)CC1=O)N2 (centres undefined),25.8
8,Cc1ccc(OC(=O)C(C)N2C(=O)c3ccccc3C2=O)cc1C (centres undefined),1.1
9,CC(C)COc1ccc(C(=O)Nc2ccc(Cl)cc2)cc1,13.1
10,CC(=O)C(=Cc1ccccc1O)C(C)=O,-4.2
11,C=CCN1C(=O)/C(=C/c2ccco2)SC1=S,46.5
12,COc1ccc(NC2SC(=O)NC2=O)cc1 (centres undefined),6.3
13,CC(=O)NNC(=O)COc1ccc(C)cc1,10.6
14,CCOc1ccc(-c2csc(-c3cc4cc([N+](=O)[O-])ccc4oc3=O)n2)cc1,-2.2
15,O=[N+]([O-])c1ccc(N/N=C/c2cccc(Oc3ccccc3)c2)cc1,6.2
16,Cc1ccccc1N1OC2C(=O)N(c3ccc(Br)cc3)C(=O)C2C1c1ccco1 (centres undefined),-52.7
17,COc1ccccc1-c1coc2cc(OC(=O)c3ccco3)ccc2c1=O,47.9
18,CC1CC(N(C(=O)c2ccc(Cl)cc2)c2ccccc2)c2ccccc2N1 (centres undefined),6.8
19,CC(C)(Oc1ccc(C2CCCCC2)cc1)C(=O)O,-5.5
20,COc1ccc(Nc2nc(NNc3cccc(C(F)(F)F)c3)nc(C)c2[N+](=O)[O-])cc1,9.1
21,O=C1S/C(=C/C=C/c2cccc([N+](=O)[O-])c2)C(=O)N1c1ccccc1,7.6
